Our source for the IC50 values is patent publication US11618753B2 (priority 2018, dated 2023).

The structures appear in SMILES notation.

As a reminder, the IC50 is the concentration that gives 50% inhibition.

The subject of this experiment is MLKL phosphorylation, HT29-L23 human colorectal adenocarcinoma cells. Description: cells. The note with it: read-out: pMLKL HCS Cell Assay (IC50, uM).
Take `CCOc1ccc(-c2cc(C(F)(F)F)c3c(N)ncnn23)cc1C(=O)N[C@@H]1CN(C(=O)C(O)(CC)C(F)(F)F)C[C@@H]1F` (stereo partly drawn) [Example 1109, 5-[4-amino-5-(trifluoromethyl)pyrrolo[2,1-f][1,2,4]triazin-7-yl]-2-ethoxy-N-[(3R,4S)-4-fluoro-1-[2-hydroxy-2-(trifluoromethyl)butanoyl]pyrrolidin-3-yl]benzamide]: the half-inhibitory concentration (IC50) is 0.019 µM.
With `COc1ncc(-c2cc(C(=O)N(C)C)c3c(N)ncnn23)cc1C(=O)N1CCC[C@@H](Cc2ccc(F)cc2)C1` [Example 470] the figure was 0.051 µM.
With `COc1cc(F)c(-c2cc(CN3CCC(F)(F)CC3)c3c(N)ncnn23)cc1C(=O)N[C@@H]1CN(C(=O)C(C)(C)C(F)(F)F)C[C@@H]1F` [Example 1638, 5-{4-amino-5-[(4,4-difluoropiperidin-1-yl)methyl]pyrrolo[2,1-f][1,2,4]triazin-7-yl}-4-fluoro-N-[(3R,4S)-4-fluoro-1-(3,3,3-trifluoro-2,2-dimethylpropanoyl)pyrrolidin-3-yl]-2-methoxybenzamide] the figure was 0.0017 µM; with `CC(C)CC(=O)N1C[C@H](F)[C@H](NC(=O)c2cc(-c3cc(C(F)(F)F)c4c(N)ncnn34)ccc2C(F)(F)F)C1` [Example 902, 5-[4-amino-5-(trifluoromethyl)pyrrolo[2,1-f][1,2,4]triazin-7-yl]-N-[(3R,4S)-4-fluoro-1-(3-methylbutanoyl)pyrrolidin-3-yl]-2-(trifluoromethyl)benzamide], 0.018 µM; with `CC(C)C(=O)N1C[C@H](F)[C@H](NC(=O)c2cccc(-c3cc(C(F)(F)F)c4c(N)ncnn34)c2)C1` [Example 89, 3-[4-amino-5-(trifluoromethyl)pyrrolo[2,1-f][1,2,4]triazin-7-yl]-N-[(3R,4S)-4-fluoro-1-(2-methylpropanoyl)pyrrolidin-3-yl]benzamide], 0.087 µM.
`COc1ncc(-c2c(C#N)cc3c(N)ncnn23)cc1C(=O)N[C@@H]1CN(C(=O)C2CCC(F)(F)CC2)C[C@@H]1F` [Example 555, 5-(4-amino-6-cyanopyrrolo[2,1-f][1,2,4]triazin-7-yl)-N-((3R,4S)-1-(4,4-difluorocyclohexane-1-carbonyl)-4-fluoropyrrolidin-3-yl)-2-methoxynicotinamide]: the IC50 stood at 1.54 µM.
In the case of `Cc1csc(C(=O)N2C[C@H](F)[C@H](NC(=O)c3cc(-c4cc(C(F)(F)F)c5c(N)ncnn45)c(F)cc3C)C2)n1` [Example 813, 5-[4-amino-5-(trifluoromethyl)pyrrolo[2,1-f][1,2,4]triazin-7-yl]-4-fluoro-N-[(3R,4S)-4-fluoro-1-(4-methyl-1,3-thiazole-2-carbonyl)pyrrolidin-3-yl]-2-methylbenzamide], the IC50 was determined as 0.042 µM.
With `C[C@@](O)(C(=O)N1C[C@H](F)[C@H](NC(=O)c2cc(-c3cc(C(F)(F)F)c4c(N)ncnn34)cc(F)c2Cl)C1)C(F)(F)F` [Example 1327, 5-[4-amino-5-(trifluoromethyl)pyrrolo-[2,1-f][1,2,4]triazin-7-yl]-2-chloro-3-fluoro-N-[(3R,4S)-4-fluoro-1-[(2R)-3,3,3-trifluoro-2-hydroxy-2-methyl-propanoyl]pyrrolidin-3-yl]benzamide] the figure was 0.0012 µM.
With `COc1ncc(-c2cc(C(F)(F)F)c3c(N)ncnn23)cc1C(=O)N[C@@H]1CN(CC(O)(c2nccs2)C(F)(F)F)C[C@@H]1F` (stereo partly drawn) [Example 1828, 5-(4-amino-5-(trifluoromethyl)pyrrolo[2,1-f][1,2,4]triazin-7-yl)-N-((3R,4S)-4-fluoro-1-(3,3,3-trifluoro-2-hydroxy-2-(thiazol-2-yl)propyl)pyrrolidin-3-yl)-2-methoxynicotinamide] the figure was 0.027 µM; with `COc1ncc(-c2cc(C(F)(F)F)c3c(N)ncnn23)cc1C(=O)N[C@@H]1CN(S(=O)(=O)Cc2ccc(F)cc2)C[C@@H]1F` [Example 1488, 5-[4-amino-5-(trifluoromethyl)pyrrolo[2,1-f][1,2,4]triazin-7-yl]-N-[(3R,4S)-4-fluoro-1-[(4-fluorophenyl)methanesulfonyl]pyrrolidin-3-yl]-2-methoxypyridine-3-carboxamide], 0.015 µM; with `Cc1ncc(-c2cc(C(F)(F)F)c3c(N)ncnn23)cc1C(=O)Nc1cn(CC(C)(O)C(F)(F)F)cn1` (stereo not drawn) [Example 1780, 5-(4-amino-5-(trifluoromethyl)pyrrolo[2,1-f][1,2,4]triazin-7-yl)-2-methyl-N-(1-(3,3,3-trifluoro-2-hydroxy-2-methylpropyl)-1H-imidazol-4-yl)nicotinamide], 0.039 µM.
As to `Cc1ccc(-c2cc(C(F)(F)F)c3c(N)ncnn23)cc1C(=O)N[C@@H]1CN(C(=O)c2ccc(F)cn2)C[C@@H]1F` [Example 1012, 5-[4-amino-5-(trifluoromethyl)pyrrolo[2,1-f][1,2,4]triazin-7-yl]-N-[(3R,4S)-4-fluoro-1-(5-fluoropyridine-2-carbonyl)pyrrolidin-3-yl]-2-methylbenzamide], the IC50 was determined as 0.0071 µM.
For `COc1ncc(-c2cc(Cn3ccnc3C)c3c(N)ncnn23)cc1C(=O)N[C@@H]1CN(C(=O)C2CC(F)(F)C2)C[C@@H]1F` [Example 1704, 5-(4-amino-5-((2-methyl-1H-imidazol-1-yl)methyl)pyrrolo[2,1-f][1,2,4]triazin-7-yl)-N-((3R,4S)-1-(3,3-difluorocyclobutane-1-carbonyl)-4-fluoropyrrolidin-3-yl)-2-methoxynicotinamide], the half-inhibitory concentration (IC50) was found to be 0.272 µM.
With `COc1ncc(-c2cc(CN3CCC(F)(F)CC3)c3c(N)ncnn23)cc1C(=O)N[C@@H]1CN(C(=O)OCC2CC2(F)F)C[C@@H]1F` (stereo partly drawn) [Example 1525, (2,2-difluorocyclopropyl)methyl (3R,4S)-3-(5-{4-amino-5-[(4,4-difluoropiperidin-1-yl)methyl]pyrrolo[2,1-f][1,2,4]triazin-7-yl}-2-methoxypyridine-3-amido)-4-fluoropyrrolidine-1-carboxylate] the figure was 0.0026 µM.
With `COc1ncc(-c2cc(C(F)(F)F)c3c(N)ncnn23)cc1NC(=O)CCC(O)c1ccc(Cl)cc1` (stereo not drawn) [Example 1766, N-(5-(4-amino-5-(trifluoromethyl)pyrrolo[2,1-f][1,2,4]triazin-7-yl)-2-methoxypyridin-3-yl)-4-(4-chlorophenyl)-4-hydroxybutanamide] the figure was 0.375 µM; with `Nc1ncnn2c(-c3cccc(C(=O)N[C@@H]4CN(C(=O)C5(F)CC5)C[C@@H]4F)c3)cc(C(F)(F)F)c12` [Example 97, 3-[4-amino-5-(trifluoromethyl)pyrrolo[2,1-f][1,2,4]triazin-7-yl]-N-[(3R,4S)-4-fluoro-1-(1-fluorocyclopropanecarbonyl)pyrrolidin-3-yl]benzamide], 0.096 µM; with `COc1ncc(-c2cc(C(F)(F)F)c3c(N)ncnn23)cc1C(=O)NC1CN(C(C)c2ccc(C(F)(F)F)cc2)C[C@@H]1F` (stereo partly drawn) [Example 1391, 5-[4-amino-5-(trifluoromethyl)-pyrrolo[2,1-f][1,2,4]triazin-7-yl]-N-[(3R,4S)-4-fluoro-1-{1-[4-(trifluoromethyl)phenyl]-ethyl}pyrrolidin-3-yl]-2-methoxypyridine-3-carbox-amide], 0.372 µM.
Take `Cc1ncc(-c2cc(C(F)(F)F)c3c(N)ncnn23)cc1C(=O)Nc1cn(CCc2ccccc2)cn1` [Example 1785, 5-(4-amino-5-(trifluoromethyl)pyrrolo[2,1-f][1,2,4]triazin-7-yl)-2-methyl-N-(1-phenethyl-1H-imidazol-4-yl)nicotinamide]: the half-inhibitory concentration (IC50) came to 0.0023 µM.
With `COc1ncc(-c2cc(C(F)(F)F)c3c(N)ncnn23)cc1C(=O)N[C@@H]1CN(C(=O)NC(C)C)C[C@@H]1F` [Example 1840, 5-(4-amino-5-(trifluoromethyl)pyrrolo[2,1-f][1,2,4]triazin-7-yl)-N-((3R,4S)-4-fluoro-1-(isopropylcarbamoyl)pyrrolidin-3-yl)-2-methoxynicotinamide], the 50% inhibitory concentration (IC50) turned out to be 0.296 µM.
Regarding `[2H]C([2H])([2H])Oc1ncc(-c2cc(CN3CC(F)(F)C3)c3c(N)ncnn23)cc1C(=O)N[C@@H]1CN(S(=O)(=O)c2cn(C)c(C)n2)C[C@@H]1F` [Example 1290, 5-{4-amino-5-[(3,3-difluoroazetidin-1-yl)methyl]pyrrolo[2,1-f][1,2,4]triazin-7-yl}-N-[(3R,4S)-1-[(1,2-dimethyl-1H-imidazol-4-yl)sulfonyl]-4-fluoropyrrolidin-3-yl]-2-(methoxy-d3)nicotinamide], the IC50 stood at 0.025 µM.
Regarding `COc1ncc(-c2cc(Cn3ccnc3)c3c(N)ncnn23)cc1C(=O)N[C@@H]1CN(C(=O)C2CC(F)(F)C2)C[C@@H]1F` [Example 1703, 5-(5-((1H-imidazol-1-yl)methyl)-4-aminopyrrolo[2,1-f][1,2,4]triazin-7-yl)-N-((3R,4S)-1-(3,3-difluorocyclobutane-1-carbonyl)-4-fluoropyrrolidin-3-yl)-2-methoxynicotinamide], the IC50 is 0.309 µM.
Consider `CC(C(=O)N1C[C@H](F)[C@H](NC(=O)c2cc(-c3cc(C(F)(F)F)c4c(N)ncnn34)c(F)cc2F)C1)C(F)(F)F` (stereo partly drawn) [Example 787, 5-[4-amino-5-(trifluoromethyl)pyrrolo[2,1-f][1,2,4]triazin-7-yl]-2,4-difluoro-N-[(3R,4S)-4-fluoro-1-(3,3,3-trifluoro-2-methylpropanoyl)pyrrolidin-3-yl]benzamide], for which the 50% inhibitory concentration (IC50) was determined as 0.012 µM.
With `Nc1ncnn2c(-c3ccc(F)c(C(=O)N[C@@H]4CN(C(=O)C5CCOCC5)C[C@@H]4F)c3)cc(C(F)(F)F)c12` [Example 258, 5-[4-amino-5-(trifluoromethyl)pyrrolo[2,1-f][1,2,4]triazin-7-yl]-2-fluoro-N-[(3R,4S)-4-fluoro-1-(oxane-4-carbonyl)pyrrolidin-3-yl]benzamide] the figure was 0.194 µM.
In the case of `Cc1cc(C(=O)N2C[C@H](F)[C@H](NC(=O)c3cc(-c4cc(C(F)(F)F)c5c(N)ncnn45)c(F)cc3C)C2)ccn1` [Example 837, 5-[4-amino-5-(trifluoromethyl)pyrrolo[2,1-f][1,2,4]triazin-7-yl]-4-fluoro-N-[(3R,4S)-4-fluoro-1-(2-methylpyridine-4-carbonyl)pyrrolidin-3-yl]-2-methylbenzamide], the IC50 turned out to be 0.038 µM.
